# The list shows a part of the results.
# System: PfSIP2 AP2 domain 1 (GST-tagged)
# Assay: gcPBM binding intensity (ln(normalized median fluorescence intensity)); higher = stronger DNA binding
# Method in brief: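 An Agilent 4 × 180k array carrying primer-extended double-stranded 36-bp intergenic genomic probes and negative controls received GST-tagged P. falciparum DNA-binding domains expressed in E. coli, about 25 μg on average, for 1 h. The binding buffer contained 1× PBS, 1% milk, 0.2 mg/ml BSA, 0.5% salmon testes DNA and 0.03% Triton X-100. Binding intensity is the top Masliner-normalised natural-log median intensity across replicate spots of either probe orientation, read after Alexa488 anti-GST antibody staining and a 488 nm scan.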
row,Sequence,gcPBM binding intensity (ln)
1,AAGAAAACTTAAAATAAAAGCATATTTTATCTTACA [TGCATGCA_negctrl_site366],6.5
2,TGCAGTCTGGAGAAGAGTACATAGTATCTGGTAGCT [XGTACX_site2021],6.72
3,AGAGTACAAGTAAATACACACATATAGATGAAAATA [CACACA_site6635],6.96
4,ATATATATATATATATGTACACACATCAATCATATT [XGTACX_site4005],9.34
5,ATATTTTATATTTCTTGTACATATATTTGTAGATAT [XGTACX_site1140],7.07
6,TTTCTTACAACAACAACAAAAAAAAATAAATAAAAT [GTGCAC_negctrl_site711],6.87
7,AATTTATTTTTAAAAAGTACATACTTAAGAAAACGA [XGTACX_site3660],7.59
8,TATTATTTTTTTATTCTATTAAAAAGAAAAAAATGA [CACACA_negctrl_site407],6.73
9,CCATTTAAAACATTTTGTACTTATTTTACATTTCTG [XGTACX_site4270],7.06
10,TCGACAATTTTATAAAGTACTTATTAGAAATATGAA [XGTACX_site7133],6.89
11,GATTCATTTCATAATACACACAACAAATATTTCAAA [CACACA_site120],7.28
12,AAACAAATAAAATTTATTAAAAAGGTCATATTATTA [CACACA_negctrl_site85],6.58
13,AGAAAAAAAAATTATACATGCATATACGTTTATTTT [TGCATGCA_site529],6.85
14,ATAAAAAAAAGACACACACACATATATATATATATA [CACACA_site3073],9.25
15,TAAATATATTTCATGACATGCAACTTGTTTTTTTGT [TGCATGCA_site456],6.72
16,TCAACACACGTGGAATGTACTTTAGTATAAGAATTC [XGTACX_site7842],6.82
17,TATATATATATATAAACACACATAAATATAAATATA [CACACA_site1121],8.9
18,ATATATATATTTTATGCATGTTCATTTTCTATATTT [TGCATGCA_site442],8.1
19,ATAATATATACGTGTGTGCACATGACAAAAGCATAT,9.07

row,Sequence,gcPBM binding intensity (ln)
1,GTTAATGTGGTTACTTGTACATATTAACGTCTTTTT [XGTACX_site2617],6.98
2,AAAAAAAAAATATACACACACATATATATATATATA [CACACA_site3404],9.51
3,CCCACAGACAAAAACACACACAAAGGTGTTCTTATA [CACACA_site4840],7
4,AAGAGAAAAAGAATGAAAGAAAAAAAAAAAAAATAT [CACACA_negctrl_site1527],6.98
5,TTTTTAAAGGTGATAAAACACACGATTTAGAAATGT [CACACA_site3160],7.1
6,TTATCGACCAATAAAGCATGCAAAAAAAAAAAAAAA [TGCATGCA_site788],6.96
7,CTACATAAAAAAATATGTACATATATATATATATAT [XGTACX_site667],9.13
8,TTTAATATAACTATTTGTACATAAAGAATATAAATA [XGTACX_site4594],7.01
9,TAAATTTTTATTTGTAGTACTATATATATATATATA [XGTACX_site1026],8.96
10,TTTTTTTGCCATATTACACACACACGGGTAAACCCC [CACACA_site6874],7.23
11,TAATGAAAATATATAACACACAAAAGTTATAAATAT [CACACA_site1189],6.83
12,GTGTTGAATTATGTGCTTTTTTCTTTCTACTCAGTA [XGTACX_negctrl_site464],7.49
13,ATACATCGTATATAAGTGCATATTAAGGTCTTAAGA [GTGCAC_site9560],8.11
14,GAACATTTGAAATATGCACACATGTATAAACATACA [CACACA_site5463],7.39
15,TATATATGTATCAAGTGTACAGTTTTAAAAAAAAAA [XGTACX_site6011],7.08
16,ACACACAATACAAAAGTGCATATAATAATTAATCAT,8.76
17,TATTTCATTAATGTCACTTTGAAAGAAATGAAAAAA [CACACA_negctrl_site1803],6.95
18,AAAAAAAAAAGACACACACACAAAATAAACAAACAA [CACACA_site7308],6.88
19,TGTTTTTAAAAAAAAAAAAAATCACACCGGCAGGTA [CACACA_negctrl_site1437],6.65

row,Sequence,gcPBM binding intensity (ln)
1,TGCGTATATATATACACACACATATATATATTTTAA [CACACA_site1952],7
2,TATTGACATATATTAGTGCAATAATGAAATCAAGTA,7.96
3,CATATTATTCTTTTCACACACGCGTTAATAATAATC [CACACA_site3931],7.15
4,AAAAAAAAAAAAAACACACACATACAGACAAAAATG [CACACA_site83],7.26
5,CTAAATTATAGATCAGTGCAATTTAATATGAGTCCA,7.57
6,TTGTAATTATTAAACACACACAAAATATATATAATA [CACACA_site2523],7.16
7,CCATAAAAATATAATACACACATATATATTAACATA [CACACA_site4102],7
8,AGGTGAGCTCAGACTACACACACAAAGAAAAAAATA [CACACA_site8439],6.8
9,TAAACATAATATTTAACACACATGAAGATGTATATT [CACACA_site1036],6.64
10,ATAAATATTTACAAAAGTACACATAACTTTAGATAT [XGTACX_site1685],6.88
11,GTTTTGGCTAACTATTCACACATTAAAATATTACCA [CACACA_site5016],7.1
12,CACCATGATACATACACACAGACATATACGCATTCA [CACACA_site1008],7.11
13,ACAATCCACAGGGGCGCACACATATAAGCAGTATAT [CACACA_site3817],7.79
14,AAAAAATTAATAAAAACACACAAAAAAAATAAACAA [CACACA_site1907],6.89
15,TTTGTTGTTTGGAGATGTACATATTTTACACTTTTT [XGTACX_site5965],6.89
16,ATTTCACAGAGACACACACACAATATATTTCCTTTT [CACACA_site7773],7.24
17,ATAAAATATATGAAGACACACATAACATCATATTTT [CACACA_site3144],6.87
18,AACCGGGCCTAAGATGTAATGCCTTAGCCTATAAAA [CACACA_negctrl_site479],6.3
19,CATAATATGACATACACACACAAAAAAAAAAAAATA [CACACA_site1285],7.02
